Reference: US5158958A, “Imidazo[4,5-b]quinolinyl oxy alkyl sulfonyl piperidine derivatives” (Bristol-Myers Squibb Company, priority 1992, dated 1992)

Test system: human blood platelets
Assay: cells
Conditions: Platelet, read-out: IC50 vs ADP in human PRP

**Q.** Which IC50 does the source give for CCOC(=O)N1CCC(S(=O)(=O)CCCOc2ccc3nc4[nH]c(=O)[nH]c4cc3c2)CC1 [Cmpd 13a] here?
**A.** The IC50 was 0.3 µg/mL (≈ 0.649 µM).

**Q.** With CCOC(=O)N1CCC(S(=O)(=O)CCCCOc2ccc3nc4[nH]c(=O)[nH]c4cc3c2)CC1 [Cmpd 13b] as the compound, how does the IC50 read?
**A.** Its IC50 is 0.2 µg/mL (≈ 0.42 µM).

**Q.** For O=c1[nH]c2cc3cc(OCCCS(=O)(=O)C4CCNCC4)ccc3nc2[nH]1 [Cmpd 17a, 4-[[3-[[(2-,3-Dihydro-2-oxo-1H-imidazo[4,5-b]guinolin7-yl)oxy]propylsulfonyl]piperidinedihydrochloride], which IC50 is on record?
**A.** Its IC50 is over 32 µg/mL.

**Q.** With O=c1[nH]c2cc3cc(OCCCS(=O)(=O)C4CCN(Cc5ccccc5)CC4)ccc3nc2[nH]1 [Cmpd 17b, 4-[[3-[2,3-Dihydro-2-oxy-1H-imidazo[4,5-b]quinolin-7-yloxy]propyl]sulfonyl]-1-(phenylmethyl)piperidine dihydrochloride] as the compound, how does the IC50 read?
**A.** Its IC50 is 0.014 µg/mL.

**Q.** Which IC50 does the source give for O=c1[nH]c2cc3cc(OCCCS(=O)(=O)C4CCN(Cc5ccc(F)cc5)CC4)ccc3nc2[nH]1 [Cmpd 17c, 4-[[3-[2,3-Dihydro-2-oxo1H-imidazo[4,5-b]quinolin-7piperidinedihydrochloride] here?
**A.** The IC50 was 0.012 µg/mL.

**Q.** With O=c1[nH]c2cc3cc(OCCCS(=O)(=O)C4CCN(CC5CCCCC5)CC4)ccc3nc2[nH]1 [Cmpd 17d, 4-[[3-[2,3-Dihydro-2-oxo-1H-imidazo[4,5-b]quinolin-7-yl-oxy]propyl]sulfonyl]-(cyclohexylmethyl)piperidine dihydrochloride] as the compound, how does the IC50 read?
**A.** The IC50 was 0.018 µg/mL.

**Q.** Which IC50 does the source give for CCC(CC)CN1CCC(S(=O)(=O)CCCOc2ccc3nc4[nH]c(=O)[nH]c4cc3c2)CC1.Cl.Cl [Cmpd 17e, 4-[[3-[2,3-Dihydro-2-oxo-1H-imidazo[4,5-b]quinolin-7yl-oxy]propyl]sulfonyl]1-(2-ethylbut-1yl)piperidine dihydrochloride] here?
**A.** The IC50 was 0.022 µg/mL.

**Q.** How did the IC50 turn out when CC(C)CN1CCC(S(=O)(=O)CCCOc2ccc3nc4[nH]c(=O)[nH]c4cc3c2)CC1 [Cmpd 17f, 4[[3-[2,3-Dihydro-2-oxo-1H-imidazo[4.5-b]quinolin-7yloxy]propyl]sulfonyll-1-(2-methylpropyl)piperidinedihydrochloride] was run?
**A.** Its IC50 is 0.014 µg/mL.

**Q.** Which IC50 does the source give for O=c1[nH]c2cc3cc(OCCCS(=O)(=O)C4CCN(CCC5CCCCC5)CC4)ccc3nc2[nH]1 [Cmpd 17g, 1-(2-Cyclohexylethyl)-4-[[(3-[(2,3-dihydro-2-oxo-1H-imidazo[4,5-b]quinolin-7-yloxy]propyl]sulfonyl]piperidinedihydrochloride] here?
**A.** Its IC50 is 0.028 µg/mL.

**Q.** Which IC50 does the source give for O=c1[nH]c2cc3cc(OCCCS(=O)(=O)C4CCN(CCc5ccccc5)CC4)ccc3nc2[nH]1 [Cmpd 17h, 4-[[3-[2,3-Dihydro-2-oxo-1H-imidazo[4,5-b]quinolin-7-yl-oxy]propyl]sulfonyl]-b 1-(2-phenylethyl)piperidine dihydrochloride] here?
**A.** Its IC50 is 0.074 µg/mL.

**Q.** For O=c1[nH]c2cc3cc(OCCCS(=O)(=O)C4CCN(Cc5cccc(C(F)(F)F)c5)CC4)ccc3nc2[nH]1 [Cmpd 17i, 4-[3-[2,3-Dihydro-2-oxo1H-imidazo[4,5-b]quinolin-7-yl-oxy]propyl]sulfony]1-[(3-trifluoromethylhenvlmethyphenylmethyl]piperidine dihydrochloride], which IC50 is on record?
**A.** The IC50 was 0.024 µg/mL.

**Q.** Which IC50 does the source give for O=c1[nH]c2cc3cc(OCCCS(=O)(=O)C4CCN(CC5CCCCO5)CC4)ccc3nc2[nH]1 (centres unmarked) [Cmpd 17k, 4[[2,3-Dihydro-2-oxo-1H-imidazo[4,5-b]quinolin-7-yl-pxy]propyl]sulfonyl]-1-[(tetrahydro-2H-pyran-2-yl)piperidine dihydrochloride] here?
**A.** The IC50 was 0.02 µg/mL.

**Q.** For O=c1[nH]c2cc3cc(OCCCCS(=O)(=O)C4CCNCC4)ccc3nc2[nH]1 [Cmpd 18a, 4-[[2,3-Dihydro-2-oxo-1H-imidazo[4,5-b]quinolin-7-yloxy]butyl]sulfonyl]piperidine dihydrochloride], which IC50 is on record?
**A.** Its IC50 is 7.4 µg/mL.

**Q.** How did the IC50 turn out when O=c1[nH]c2cc3cc(OCCCCS(=O)(=O)C4CCN(Cc5ccccc5)CC4)ccc3nc2[nH]1 [Cmpd 18b, 4[[3-[2,3-Dihydro-2-oxo-1H-imidazo[4,5-b]quinolin-7-yloxyl]butylsulfonyl]-1-(phenylmethyl)piperidinedihydrochloride] was run?
**A.** The IC50 was 0.024 µg/mL.

**Q.** How did the IC50 turn out when O=c1[nH]c2cc3cc(OCCCCS(=O)(=O)C4CCN(CC5CCCCC5)CC4)ccc3nc2[nH]1 [Cmpd 18d, 1-(Cyclohexylmethyl)-4-[[3-[2,3-Dihydro-2-oxo-1H-imidaxo [4,5-b]quinolin-7-yloxy]butylsulfonylpiperidinedihydrochloride] was run?
**A.** The IC50 was 0.018 µg/mL.

**Q.** For O=c1[nH]c2cc3cc(OCCCCS(=O)(=O)C4CCN(Cc5ccc(F)cc5)CC4)ccc3nc2[nH]1 [l8c, dihydrochloride], which IC50 is on record?
**A.** Its IC50 is 0.04 µg/mL.

**Q.** For CCC(CC)CN1CCC(S(=O)(=O)CCCCOc2ccc3nc4[nH]c(=O)[nH]c4cc3c2)CC1 [l8e, 4[[3-[2,3-Dihydro-2-oxo-1H-imidazo[4.5-b]qouinolin-7-yloxy]butylsulfonyl]-1-(2-ethylbut-1-yl)piperidinedihydrochloride], which IC50 is on record?
**A.** The IC50 was 0.012 µg/mL.

In brackets after ≈: the same amount, converted by molar mass. Structures can show the parent of a compound that is named as a salt.
